Measured values reported in article PMC12136788.
Some of the results follow.

T1: UNK ZnF1-3 (human, UniProt Q9C0B0 31-174)
T1 sequence: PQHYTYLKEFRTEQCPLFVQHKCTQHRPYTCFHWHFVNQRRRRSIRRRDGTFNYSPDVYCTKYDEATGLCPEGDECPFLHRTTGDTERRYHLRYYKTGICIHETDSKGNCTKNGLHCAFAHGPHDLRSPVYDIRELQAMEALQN

B1: chr18:43664530:43664531:-_ENSG00000152234_ENST00000398752|hu_hu|FALSE|FALSE (ssRNA)
RNA: GGGAGUUCUACAGUCCGACGAUCAGUGCCCAACAAGGCUUGGUGCUGGCUGACGACAUGAGACAAGAAAGCAUUCUCAAACUUUGUAAUCUUGCUGGGCUCCAGUUUAUCAAGAUAUCCCCUUACACCCGCAUAGAUAACAGCCAACAGAGGAUUGAGCAUCA
B2: chr11:134117265:134117266:+_ENSG00000151502_ENST00000281187|hu_mus|FALSE|FALSE (ssRNA)
RNA: GGGAGUUCUACAGUCCGACGAUCGUUGGAAAAUAAUUUUGUGUUGUCGGCUGGGAGGCAGAGAAAUUGACAAAUGCUUUUUAAUGAGAUAUUAAAAGGAGGCACGGCAGAGUCUAGUCUCAUAUCCUGAAAAGGGCAAGAGCCCAACAGAGGAUUGAGCAUCA
B3: chr7:135612270:135612271:-_ENSG00000105887_ENST00000393085|hu_mus|hu_hu_hu_mus_False|1_28 (ssRNA)
RNA: GGGAGUUCUACAGUCCGACGAUCGUUUUUUUCUGAGAUGUUAAAUAGUACUUCAGUGGAAAACAAAACUUAACCUUUUAUUAAUGCGUGUUGUACCAAAAGCAGACCAUGGUUUUACAUUUAUUCAAAAAUAUUAAGAACAUUCAACAGAGGAUUGAGCAUCA
B4: chr7:133502204:133502205:+_ENSG00000131558_ENST00000253861|hu_hu|FALSE|FALSE (ssRNA)
RNA: GGGAGUUCUACAGUCCGACGAUCGGUGUCUGCGUUGGCCAGAAUCUUCAAAGGGUCAGAUGUUUUAGUGACUCCUUCAAUCUCCUUGUUGAUCUCAGCCAAGACUUGAUUGAGAAAGAUGUUUUUGAUGUACACGGUGAGAAACAACAGAGGAUUGAGCAUCA
B5: chr7:151048522:151048523:+_ENSG00000013374_ENST00000566856|hu_mus|hu_hu_hu_mus_True|48_58 (ssRNA)
RNA: GGGAGUUCUACAGUCCGACGAUCCUGUUUCUUAUUUAUUACGAUCUUGAUGUAAUUUUCUUGAAAUCCGAAAGUUUCAGCUAUUUUGGACCUCAGUUCUCUACCAGUGACAUGCAAGCGGGUCUCCAACAAGCUUUUCUUAUCCAACAGAGGAUUGAGCAUCA
B6: 232325539_232326332_832_CDS_ENSG00000115053_ENST00000322723|human|control|control (ssRNA)
RNA: GGGAGUUCUACAGUCCGACGAUCUUUGGCUGGUGUAGUCUCCAUAGCUUCUUCUUCAGAGUCAUCUUCCUCAUCGUCAUCGUCAUCCUCAUCAUCUUCGUCAUCCUCAUCGUCCUCAUCCUCUGAGGCAGGGGCAGCAGCUGCCAACAGAGGAUUGAGCAUCA
B7: chr4:115894766:115894767:+_ENSMUSG00000028698_ENSMUST00000030464|mus_hu|mus_mus_mus_hu_True|68_78 (ssRNA)
RNA: GGGAGUUCUACAGUCCGACGAUCUUCCACACGGAAAUGUACUUCGGGUUUUCCAACGCCAGUACAAGUCCAGCCAAAACUACCCGAACAGGGUCCUCCCCCUCUCUCCUACAGAACACAACAAAAUGCCCCCGAACUUUCAAGCAACAGAGGAUUGAGCAUCA
B8: 62105683_62122626_701_CDS_ENSMUSG00000042298_ENSMUST00000050646|mouse|control|control (ssRNA)
RNA: GGGAGUUCUACAGUCCGACGAUCUGAUAGCUGCUUGGAGAAUAGCAGAUAGCGUGCACAAGAGUCUAAGCACAUACCAAGGAGGAGGUAAGUAUUGGCUGUUUCUUCUGACAUAAUAUCUUCUGCUAAUUCCUUUUCUCUUUCCAACAGAGGAUUGAGCAUCA
B9: chrX:98862621:98862622:+_ENSMUSG00000034160_ENSMUST00000044475|mus_hu|mus_mus_mus_hu_False|38_48 (ssRNA)
RNA: GGGAGUUCUACAGUCCGACGAUCCUGCAUCUCCUUUAGAGUGUUUCCCAUAUUAGAGUAGGCAUCAGCAAAGGUAGGACUGAUUCGUAUGGCUUCUUUAUAGUGCAUCAGAGCUUCCUGCAGUUUUCCCUGCUGCUGCAGUACCAACAGAGGAUUGAGCAUCA
B10: chr18:59894552:59894553:+_ENSG00000134444_ENST00000256858|hu_hu|FALSE|FALSE (ssRNA)
RNA: GGGAGUUCUACAGUCCGACGAUCUUGAUGAUUUCCAAAAUCCCGGUAGAGUUGCAAUAAGUCUGGAGGUUUUGGAAUGUUUAAUCCUACAUCAUCCCAUAAUUCAAAAUCCUGAUCAUCGUUUUCAUCUGAAAAGGUUAUUGACAACAGAGGAUUGAGCAUCA
B11: chr1:215793774:215793775:+_ENSG00000136636_ENST00000259154|hu_hu|FALSE|FALSE (ssRNA)
RNA: GGGAGUUCUACAGUCCGACGAUCAUAGGGAACUUUCUUUCUUCCAAGGAAUCCUCCCCCUUCAAAUCCUCCUUUCUUCCUAAACUCUAUUUUAUUUUCAUUUUCAUCUUCUGAUGACCUUUUCUUGGAUUCUGAAAAACCUUCCAACAGAGGAUUGAGCAUCA
B12: chr19:8913615:8913616:-_ENSMUSG00000071658_ENSMUST00000096259|mus_hu|mus_mus_mus_hu_False|8_98 (ssRNA)
RNA: GGGAGUUCUACAGUCCGACGAUCAGGGUACCAAAACACCCUGCCUCAAAUGGGUGCCCCACCCAGUAGGGAGUUGCAGCUGAAAGUAUCUGAUGCAGAAGCAGUGACUAUACGAAAGGAGGCCCCUGAUGCUCAGAAGGCCAGCAACAGAGGAUUGAGCAUCA
B13: 87763691_87772365_1231_CDS_ENSG00000008277_ENST00000398209|human|control|control (ssRNA)
RNA: GGGAGUUCUACAGUCCGACGAUCGGUGAACUUUUUAGGAAGAUAAUAGCCAGUGUCUCCCAUUAUGCACCCGGACCACGUGUCCUCGCAUUUACAUUCACCACUUGCUAACUUUCUUUUGUCUGAGAUAAUACCAAUAUUAUGCAACAGAGGAUUGAGCAUCA
B14: chr17:56552419:56552420:-_ENSMUSG00000013236_ENSMUST00000086828|mus_mus|mus_mus_mus_hu_False|78_108 (ssRNA)
RNA: GGGAGUUCUACAGUCCGACGAUCAAAGUUUUUUUCUUUUAAAAAAAAUGAAAUGUCAGAAAAAGAAGUUACACUGAGAGUUUUAAAAGAAAGCUGGAUUCUGGUCCCAGCCCAGUGUCCCCAGGCUGCAGAGCGGGGAGGAGCCAACAGAGGAUUGAGCAUCA
B15: chr16:94690093:94690094:+_ENSMUSG00000040785_ENSMUST00000117648|mus_hu|mus_mus_mus_hu_True|28_28 (ssRNA)
RNA: GGGAGUUCUACAGUCCGACGAUCGGGCUGGGAUGACGGACACACAGCCUCGAUUCCAGGGGGAAAAAGUCUUAGUCGAUACUAAUUAAAAAGUGUUAAUGAUUUUUAUUACCAAAAUUACAUCUAUAAAAGAUGAAAAGCAAACAACAGAGGAUUGAGCAUCA
B16: chr7:108143013:108143014:-_ENSG00000135241_ENST00000257694|hu_mus|motif|central (ssRNA)
RNA: GGGAGUUCUACAGUCCGACGAUCGAGGAUUCGGAUUCCUCUGCCUUUCACUGGAUCUACAUAACCAAUUAAAGCCAAAAUUUCUCGGACUGCAGCCUGAAGAGUUUCAUCCUUAACUUGUCUCAGCCGUAAUAAAUAUGGAAUCAACAGAGGAUUGAGCAUCA
B17: chr1:89688648:89688649:+_ENSMUSG00000026289_ENSMUST00000027512|mus_mus|motif|central (ssRNA)
RNA: GGGAGUUCUACAGUCCGACGAUCGAGCAGGACAGAGAAUGCUUUCCCAGCCCAGCCUUCAUCAUCACCAGCUCCGGGGUAGGCUUCUCUUACCAACACUGCACUGCACGCACAGGCAGUGGCUGGCCUCACCACUCUCUGCUCCAACAGAGGAUUGAGCAUCA
B18: chrX:71549762:71549763:+_ENSMUSG00000019087_ENSMUST00000019231|mus_mus|mus_mus_mus_hu_False|1_98 (ssRNA)
RNA: GGGAGUUCUACAGUCCGACGAUCAAACCCGUGUACUCACUCUUAACAGCACAACAUCACCAGAAAACGAUAACGACAGCCAAGCAGGACAGACAGUUAAGUAGUACUUCCACACUCCCAAACUCAGGGAGCCCUAUAGUUCAUCAACAGAGGAUUGAGCAUCA
B19: 64621807_64623798_901_3pUTR_ENSMUSG00000024588_ENSMUST00000025484|mouse|control|control (ssRNA)
RNA: GGGAGUUCUACAGUCCGACGAUCCCAUGACUUUGUGGACAGUGGCUCCUACCUCUUGGGGAUAGGGGUCCCCUCUGUUGACAACAGACAUCGGCAGGGAGUGGGCAGAAAACAGAAUGACCACCUCGCUUCUCUUCUCCUCUGCAACAGAGGAUUGAGCAUCA
B20: 41407170_41407290_2438_CDS_ENSMUSG00000021365_ENSMUST00000163623|mouse|control|control (ssRNA)
RNA: GGGAGUUCUACAGUCCGACGAUCCUUGAGCUGUUCGCAGAGCUGGUUGCUGGAGUUCCUGACUUUGUUGCGAAUGUCCUGGGCAGCCACCUGCCUUGUCAGAGUGUCUCCAAUGAACACCAGUUUGUGCGCACUAAGAAUGACCAACAGAGGAUUGAGCAUCA
B21: chr12:98991669:98991670:+_ENSG00000075415_ENST00000552981|hu_mus|FALSE|FALSE (ssRNA)
RNA: GGGAGUUCUACAGUCCGACGAUCGAAUCCAUUAAAUAUGCCUUUGUACUUCUGAGGGUCCACCUGCAUGCGGCACUUUACUAAGUCCAGGGGAACAACAGCAGUGUGUGUCAGCCCACAACUUAAGACCCCACCAAAGCCACACAACAGAGGAUUGAGCAUCA
B22: chr5:151042278:151042279:-_ENSG00000113140_ENST00000231061|hu_mus|motif|central (ssRNA)
RNA: GGGAGUUCUACAGUCCGACGAUCAUGACAGCCAUCUAGAUGUGAAAAAAAUCAAACCAAUUCACCAGUCUCACUUCCUCGGCGUUACAACCUUUUCUGUCUUCCUCUUGAGUCUCACUUUCCUGAAACAGCCUCCCAGUGCCUCAACAGAGGAUUGAGCAUCA

Biological target: T1, UNK ZnF1-3
Experiment: nsRBNS (natural sequence RNA bind-n-seq); RBNS binding buffer (assumed for nsRBNS): 25 mM Tris pH 7.5, 150 mM KCl, 3 mM MgCl2, 0.01% Triton X-100, 500 ug/ml BSA, 20 U/ml SUPERase-In, 4 C; UNK is unkempt and MSI1 is Musashi-1; names of the RNAs are library labels; protein concentration not given here; high values mean tight binding

Row | Binder | binding signal
1 | B1 | 1.28 enrichment R
2 | B2 | 2.19 enrichment R
3 | B3 | 1.02 enrichment R
4 | B4 | 0.885 enrichment R
5 | B5 | 0.674 enrichment R
6 | B6 | 0.663 enrichment R
7 | B7 | 1.03 enrichment R
8 | B8 | 1.07 enrichment R
9 | B9 | 0.967 enrichment R
10 | B10 | 0.399 enrichment R
11 | B11 | 0.475 enrichment R
12 | B12 | 1.13 enrichment R
13 | B13 | 0.368 enrichment R
14 | B14 | 2.07 enrichment R
15 | B15 | 1.28 enrichment R
16 | B16 | 0.962 enrichment R
17 | B17 | 1.01 enrichment R
18 | B18 | 1.76 enrichment R
19 | B19 | 1.02 enrichment R
20 | B20 | 0.988 enrichment R
21 | B21 | 1.12 enrichment R
22 | B22 | 1.28 enrichment R
